According to PubChem BioAssay AID504339 (National Center for Advancing Translational Sciences (NCATS), 2011):
Out of some 390,000 compounds screened, about 17,000 (4.4%) were called active. Inconclusive results, whose numbers are uncertain, are shown with a selection of clear calls. The call rests on the fitted dose curve; in most records, active means well fitted inhibition curve with a large enough effect; inconclusive means small, poorly fitted or top-dose-only effect; inactive means no such curve, though single readings can be large or run the other way. Potencies beside an inconclusive call are fits to weak or partial responses and may not hold up.

Target: Lysine-specific demethylase 4A (Homo sapiens) (UniProt O75164)
Sequence of UniProt O75164 (O75164 whole entry, looked up, the tested form may be a part): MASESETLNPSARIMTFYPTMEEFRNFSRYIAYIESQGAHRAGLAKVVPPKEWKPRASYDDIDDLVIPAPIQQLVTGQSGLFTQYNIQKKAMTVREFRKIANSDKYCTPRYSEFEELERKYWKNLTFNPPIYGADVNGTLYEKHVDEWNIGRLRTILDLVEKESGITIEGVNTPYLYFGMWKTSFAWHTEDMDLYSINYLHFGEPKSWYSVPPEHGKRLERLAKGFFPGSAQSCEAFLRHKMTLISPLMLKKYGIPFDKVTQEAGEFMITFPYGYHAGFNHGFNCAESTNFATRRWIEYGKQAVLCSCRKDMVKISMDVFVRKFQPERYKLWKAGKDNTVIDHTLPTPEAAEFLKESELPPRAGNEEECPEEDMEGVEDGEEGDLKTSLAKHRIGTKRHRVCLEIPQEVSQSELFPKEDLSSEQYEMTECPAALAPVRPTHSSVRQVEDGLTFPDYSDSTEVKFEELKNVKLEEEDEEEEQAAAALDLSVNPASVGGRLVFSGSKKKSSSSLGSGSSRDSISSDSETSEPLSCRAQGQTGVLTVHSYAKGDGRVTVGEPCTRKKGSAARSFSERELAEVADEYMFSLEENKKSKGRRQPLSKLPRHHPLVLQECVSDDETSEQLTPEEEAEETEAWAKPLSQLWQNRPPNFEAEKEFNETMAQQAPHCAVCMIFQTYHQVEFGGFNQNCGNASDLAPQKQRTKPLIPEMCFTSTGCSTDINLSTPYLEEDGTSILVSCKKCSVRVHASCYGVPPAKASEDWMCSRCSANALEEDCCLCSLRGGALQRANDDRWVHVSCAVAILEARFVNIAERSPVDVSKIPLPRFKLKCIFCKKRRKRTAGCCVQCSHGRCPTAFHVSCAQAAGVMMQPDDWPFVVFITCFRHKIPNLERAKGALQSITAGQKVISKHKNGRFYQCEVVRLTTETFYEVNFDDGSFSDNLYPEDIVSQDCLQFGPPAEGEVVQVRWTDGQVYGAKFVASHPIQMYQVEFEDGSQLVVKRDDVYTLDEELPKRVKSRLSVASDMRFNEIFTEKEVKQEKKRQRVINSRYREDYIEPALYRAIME
Assay: qHTS Assay for Inhibitors of JMJD2A-Tudor Domain; further: nearly all actives have a fitted effect of over 50% in size
Conditions: AlphaScreen JMJD2A-Tudor / H3K4me3 peptide binding; activity change, negative = inhibition: at 114 µM (top of the series)
On the % scale 0 is the no-effect control and ±100 the full control effect; potency means the concentration at half of the fitted maximal effect; tags describe the fitted curve by direction and shape.

Q: For `S=c1nc(C23CC4CC(CC(C4)C2)C3)[nH][nH]1`, which Potency is on record?
A: active: 3.55 µM

Q: For `CCOCCc1nn2c(=O)cc(COC(=O)c3ccc(NC(=O)C(C)(C)C)cc3)nc2s1`, which “activity change, negative = inhibition” value is on record?
A: inactive: -15.2%

Q: For `Nc1nc(Sc2ccc([N+](=O)[O-])c3nonc23)c2[nH]cnc2n1`, which Potency is on record?
A: active: 28.2 µM

Q: How did the “activity change, negative = inhibition” value turn out when `COc1ccc(N2CCN(S(=O)(=O)c3ccc(Br)s3)CC2)cc1` was run?
A: inactive: 17.9%

Q: How did the “activity change, negative = inhibition” value turn out when `COc1cc(OC)cc(C(=O)Oc2ccc(/C=N/Nc3nc4ccccc4s3)cc2OC)c1` was run?
A: inactive: -28.8%

Q: For `COc1ccc(/C=C2\SC(=S)N(CCC(=O)Nc3ccc(C(=O)O)cc3)C2=O)cc1OC`, which Potency is on record?
A: inconclusive: 35.5 µM [inhibitor, partial curve]

Q: With `Cc1cc(C)nc(SCc2ccc(F)cc2)n1` as the compound, how does the “activity change, negative = inhibition” value read?
A: inactive: 22.5%

Q: How did the “activity change, negative = inhibition” value turn out when `O=C(CN1C(=O)NC2NC(=O)NC21)N/N=C/c1ccccc1O` (stereo unspecified) was run?
A: inactive: -34%

Q: `Cc1ccc(S(=O)(=O)N/N=C/c2ccc(O)c(O)c2)cc1[N+](=O)[O-]` was tested. Which Potency did it give?
A: inconclusive: 56.2 µM [inhibitor, partial curve]

Q: `CCN(CC)c1ccc(C=Nc2ccc(N(C)C)cc2)c(O)c1` was tested. Which Potency did it give?
A: active: 56.2 µM

Q: For `COc1ccc(-c2noc(CN3CCN(C(=O)c4cccs4)CC3)n2)c(OC)c1OC`, which “activity change, negative = inhibition” value is on record?
A: inactive: -33.6%

Q: How did the Potency turn out when `Cc1cc(Br)cc2c1N(Cc1ccccc1OC(C)C)C(=O)C2=O` was run?
A: active: 17.8 µM

Q: How did the Potency turn out when `CCOC(=O)c1c(C)oc2c(CN3CCN(C)CC3)c(Br)c(OC)c(O)c12` was run?
A: inconclusive: 22.4 µM [inhibitor, full curve, poor fit]

Q: For `Cc1cc(-c2ccc(/C=N/n3cnnc3)o2)ccc1Cl`, which Potency is on record?
A: inconclusive: 89.1 µM [inhibitor, partial curve]

Q: How did the Potency turn out when `COc1cccc(-c2nnc(NC(C)=O)o2)c1` was run?
A: inconclusive: 50.1 µM [inhibitor, partial curve]

Q: Which Potency does the source give for `O=C(NC(=S)Nc1cccc2c(O)cccc12)c1ccco1` here?
A: inconclusive: 79.4 µM [inhibitor, partial curve]

Q: For `Cc1cccc2c1NC(C)CC2C` (stereo unspecified), which Potency is on record?
A: inconclusive: 63.1 µM [inhibitor, partial curve, poor fit]

Q: How did the Potency turn out when `O=C1/C(=C/c2ccccc2)SC(=S)N1CCCC(=O)N1CCCCC1CCO` (stereo unspecified) was run?
A: inconclusive: 17.8 µM [inhibitor, full curve]

Q: How did the Potency turn out when `CN(c1ccccc1)c1ccc(/C=C/[N+](=O)[O-])cc1` was run?
A: inconclusive: 56.2 µM [inhibitor, partial curve, poor fit]

Q: With `C=CCn1c(COc2cccc(C)c2)nnc1SCC(=O)NC(=O)NCc1ccco1` as the compound, how does the Potency read?
A: inconclusive: 56.2 µM [inhibitor, partial curve]

Q: `CC(=O)N1c2ccc(S(=O)(=O)NC(CC(=O)O)c3ccc(Br)cc3)cc2CC1C` (stereo unspecified) was tested. Which Potency did it give?
A: inconclusive: 39.8 µM [inhibitor, single point]

Q: `COc1ccc(N2CCN(C(=O)CSc3nnc4n3C(C)(C)Cc3ccccc3-4)CC2)cc1` was tested. Which “activity change, negative = inhibition” value did it give?
A: inactive: -32.1%

Q: With `CCn1c2ccccc2c2cc(NC(=O)COc3cc(C)ccc3C)ccc21` as the compound, how does the “activity change, negative = inhibition” value read?
A: inactive: -18.6%

Q: With `Cc1cccc(Cn2c(COc3ccccc3)nc3ccccc32)c1` as the compound, how does the “activity change, negative = inhibition” value read?
A: inactive: 53%

Q: With `O=C(CNc1ccc(F)cc1Cl)Nc1cccc(S(=O)(=O)N2CCCCC2)c1` as the compound, how does the “activity change, negative = inhibition” value read?
A: inactive: -5.74%

Q: For `COc1cc(C(=O)OCCNC(=O)c2cccnc2)cc(OC)c1OC`, which Potency is on record?
A: inconclusive: 22.4 µM [inhibitor, full curve, poor fit]

Q: With `C[C@H](CO)N1C[C@H](C)[C@@H](CN(C)C(=O)Nc2ccc3c(c2)OCO3)Oc2c(NC(=O)Nc3ccc(C(F)(F)F)cc3)cccc2C1=O` as the compound, how does the Potency read?
A: inconclusive: 50.1 µM [inhibitor, partial curve]

Q: For `N#C/C(=C\C=C\c1ccccc1[N+](=O)[O-])c1nc(-c2ccc3c(c2)OCO3)cs1`, which “activity change, negative = inhibition” value is on record?
A: inactive: -19.3%

Q: With `O=[N+]([O-])c1ccc(C2=NN(c3ccccc3)C(c3ccco3)C2)cc1` (stereo unspecified) as the compound, how does the Potency read?
A: inconclusive: 56.2 µM [inhibitor, partial curve, poor fit]

Q: With `CC(C)(C)C(=O)CSc1ncccn1` as the compound, how does the Potency read?
A: inconclusive: 79.4 µM [inhibitor, partial curve]

Q: With `CSc1nsc(/C=C/Nc2ccc(C(=O)O)cc2)c1C#N` as the compound, how does the Potency read?
A: inconclusive: 25.1 µM [inhibitor, single point]

Q: Which “activity change, negative = inhibition” value does the source give for `O=C(O)/C=C/C(=O)NCc1csc2ccccc12` here?
A: inactive: -6.98%

Q: `C[C@@H](C(=O)NC1CCN(Cc2ccccc2)CC1)N1C(=O)N2CCc3c([nH]c4ccccc34)[C@@]2(C)C1=O` was tested. Which Potency did it give?
A: inconclusive: 79.4 µM [inhibitor, partial curve]

Q: For `COc1ccc(C(=O)N/C(=C\c2ccc3c(c2)OCO3)C(=O)NCCc2nc3ccccc3[nH]2)cc1`, which Potency is on record?
A: inconclusive: 70.8 µM [inhibitor, single point]

Q: Which “activity change, negative = inhibition” value does the source give for `Clc1ccccc1OCCCOc1cccc2cccnc12` here?
A: inactive: 8.16%

Q: With `CCCCCn1c(CCCNC(=O)c2cccc(C)c2)nc2ccccc21` as the compound, how does the “activity change, negative = inhibition” value read?
A: inactive: -25.2%

Q: Which Potency does the source give for `O=C(O)c1c[nH]c2ccc(S(=O)(=O)N3CCN(c4ccc(F)cc4)CC3)cc2c1=O` here?
A: inconclusive: 14.1 µM [inhibitor, partial curve]

Q: How did the Potency turn out when `COCc1ccc(CN2CCC(C(=O)Nc3cccc(-c4cccc(Cl)c4)c3)CC2)o1` was run?
A: inconclusive: 28.2 µM [inhibitor, full curve]

Q: `COc1ccc(NC(=O)c2ccc(NC(=O)CCS(=O)(=O)c3cccs3)cc2)cc1OC` was tested. Which “activity change, negative = inhibition” value did it give?
A: inactive: -19.8%

Q: With `O=C(NCCCNCc1ccccc1)c1ccccn1` as the compound, how does the Potency read?
A: inconclusive: 2.82 µM [inhibitor, full curve, poor fit]

Q: With `COCCN1C(=O)C(=O)/C(=C(/O)c2ccc(S(=O)(=O)N3CCOCC3)cc2)C1c1cccc([N+](=O)[O-])c1` (stereo unspecified) as the compound, how does the Potency read?
A: inconclusive: 56.2 µM [inhibitor, partial curve, poor fit]

Q: `CCc1ccc(CNCc2ccc(OCC(O)CN(C)Cc3ccccc3)cc2)nc1` (stereo unspecified) was tested. Which Potency did it give?
A: inconclusive: 3.16 µM [inhibitor, partial curve]

Q: `O=C(C1CCN(S(=O)(=O)N2CCOCC2)CC1)N1CCN(c2ccc(F)cc2)CC1` was tested. Which Potency did it give?
A: inconclusive: 100 µM [inhibitor, single point]

Q: How did the Potency turn out when `Cc1ccc(OCCNCC(O)COc2ccccc2)cc1` (stereo unspecified) was run?
A: active: 56.2 µM

Q: How did the “activity change, negative = inhibition” value turn out when `CCc1cccc(CC)c1NC(=O)C1CCN(C(=O)c2ccco2)CC1` was run?
A: inactive: -5.19% [at 57.1 µM]

Q: Which Potency does the source give for `COc1ccc(CCNC(=S)NCCc2c[nH]c3ccccc23)cc1` here?
A: inconclusive: 50.1 µM [inhibitor, partial curve]
